In all, about 110,000 compounds were measured (“z-score”: median about -0.1, highest 2% from about 2 on). The list shows a part of the results. Active and inactive are the calls of the source.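 The calls were made as follows: active = z-score in the third read window above 3 or below -3; inactive = the rest.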
target: Metabotropic glutamate receptor 8 (Rattus norvegicus) (UniProt P70579); experiment: rat mGluR8 modulators via GIRK flux, primary screen, cell-based, thallium flux, HTS (AID 488969); settings: HEK293 rat mGluR8, GIRK (G protein-gated inwardly rectifying potassium channel) thallium flux, FluoZin2; at 10 µM; stronger effect = higher value; submaximal glutamate (EC20) added with thallium
Sequence of UniProt P70579 (P70579 whole entry, looked up): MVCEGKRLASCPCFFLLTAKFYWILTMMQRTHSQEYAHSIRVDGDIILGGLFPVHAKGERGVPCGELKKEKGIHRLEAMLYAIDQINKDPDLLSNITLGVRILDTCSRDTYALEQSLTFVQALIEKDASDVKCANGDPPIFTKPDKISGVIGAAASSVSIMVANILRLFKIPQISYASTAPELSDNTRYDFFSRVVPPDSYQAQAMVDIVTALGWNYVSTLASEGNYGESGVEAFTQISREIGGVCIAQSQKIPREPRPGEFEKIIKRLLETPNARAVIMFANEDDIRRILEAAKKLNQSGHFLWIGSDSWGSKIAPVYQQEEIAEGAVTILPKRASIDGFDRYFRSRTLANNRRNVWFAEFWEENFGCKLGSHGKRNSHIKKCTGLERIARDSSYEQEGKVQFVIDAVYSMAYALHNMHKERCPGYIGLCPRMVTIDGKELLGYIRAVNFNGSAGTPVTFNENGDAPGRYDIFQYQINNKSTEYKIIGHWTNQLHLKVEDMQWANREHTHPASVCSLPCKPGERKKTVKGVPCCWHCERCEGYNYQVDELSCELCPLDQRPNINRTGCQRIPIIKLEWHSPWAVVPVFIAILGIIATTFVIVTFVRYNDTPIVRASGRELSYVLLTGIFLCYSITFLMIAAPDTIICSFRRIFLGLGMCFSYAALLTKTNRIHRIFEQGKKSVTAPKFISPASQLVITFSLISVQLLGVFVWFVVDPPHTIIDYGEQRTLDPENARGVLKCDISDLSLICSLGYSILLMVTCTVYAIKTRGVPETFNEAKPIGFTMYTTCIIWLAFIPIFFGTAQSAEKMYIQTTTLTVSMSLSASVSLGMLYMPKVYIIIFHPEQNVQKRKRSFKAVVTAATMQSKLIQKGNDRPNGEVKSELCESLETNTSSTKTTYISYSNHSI

`COc1cc2c(cc1OC)C(C(=O)Nc1ccc3c(c1)OCCO3)C1c3ccccc3CCN1C2=O` (stereo not drawn) was tested. Which z-score did it give?
The z-score was 0.206.

`CC(C)[C@H](NC(=O)C1(c2ccccc2)CCN(C(=O)OC(C)(C)C)CC1)C(=O)O` was tested. Which z-score did it give?
Its z-score is -1.06.

With `O=C1CCCC/C1=C\Nc1ccccc1C(=O)O` as the molecule, how does the z-score read?
Its z-score is -0.313.

With `CCOc1ccc(OCC)c(NS(=O)(=O)c2ccc3c(c2)CCN3C(=O)C2CCC2)c1` as the molecule, how does the z-score read?
Its z-score is -0.364.

`COc1ccc(CCN2C(=O)CC(Cc3ccc(Br)cc3)C2=O)cc1OC` (stereo not drawn) was tested. Which z-score did it give?
Its z-score is -0.0941.

Which z-score does the source give for `Cc1nnc(SCc2c(Cl)cccc2Cl)s1` here?
The z-score was -0.21.

`COc1ccc(NS(=O)(=O)c2cc(NC(=O)c3cnccn3)ccc2N2CCCC2)cc1` was tested. Which z-score did it give?
Its z-score is -0.041.

How did the z-score turn out when `Cc1cc(C)n(-c2ccc(OCC(=O)O)nn2)n1` was run?
Its z-score is -0.0885.

Which z-score does the source give for `Cc1ccc2nc(C3CCN(CC(=O)N4CCCCCC4)CC3)[nH]c2c1` here?
The z-score was -0.125.

For `O=C(c1cccc(COc2cccc3ccccc23)c1)N1CCCC1`, which z-score is on record?
Its z-score is -0.0861.

With `O=C(NC(=S)N1CCN(c2ccc([N+](=O)[O-])cc2)CC1)c1ccc(F)cc1` as the molecule, how does the z-score read?
The z-score was active: 9.01.

For `O=C1C(=O)N(CNc2cccnc2)c2ccccc21`, which z-score is on record?
Its z-score is -0.21.

Which z-score does the source give for `O=[N+]([O-])c1ccc(N2CCN(S(=O)(=O)c3ccccc3)CC2)cc1NCc1ccco1` here?
The z-score was -0.155.

With `O=C(CNS(=O)(=O)c1ccc(Br)s1)N1CCCC1` as the molecule, how does the z-score read?
Its z-score is 0.497.

`CCC(C)c1ccc(O)c(/C=N/O)c1` (stereo not drawn) was tested. Which z-score did it give?
The z-score was 0.177.

For `CCC(C)c1ccccc1NC(=S)Nc1cccnc1` (stereo not drawn), which z-score is on record?
The z-score was -0.189.

How did the z-score turn out when `COc1ccc(CNC(=O)c2cc(C3CC3)on2)cc1` was run?
The z-score was -0.593.

With `CCOC(=O)N1CCN(S(=O)(=O)c2ccc(OCC(=O)OC)c(Cl)c2)CC1` as the molecule, how does the z-score read?
The z-score was 0.497.

For `Cc1ccc(N(CC(=O)Nc2ccc(F)cc2)S(=O)(=O)N2CCCC2)cc1`, which z-score is on record?
The z-score was -0.846.

With `O=[N+]([O-])c1c(Nc2ccccc2)ccc2nonc12` as the molecule, how does the z-score read?
Its z-score is -0.0615.

`O=C(COc1ccc(C(=O)NCCc2ccccc2)cc1)Nc1ccccc1` was tested. Which z-score did it give?
The z-score was -0.451.

`COc1cc2c(cc1OC)CN(C(C)C(=O)N1CCc3ccccc31)CC2` (stereo not drawn) was tested. Which z-score did it give?
Its z-score is 0.661.

How did the z-score turn out when `CNC(=S)N(Cc1ccc2c(c1)OCO2)C1CC(=O)N(c2ccc(F)cc2)C1=O` (stereo not drawn) was run?
The z-score was 0.0865.

With `Cc1cccc2cc(CN(Cc3cccs3)C(=S)NCc3ccco3)c(=O)[nH]c12` as the molecule, how does the z-score read?
Its z-score is 0.0639.

For `COc1ccc(C(=O)C[n+]2ccccc2C)cc1`, which z-score is on record?
The z-score was 0.831.

`COc1ccc(-c2noc(CCC(=O)NCCN3CCN(c4ccccc4F)CC3)n2)cc1` was tested. Which z-score did it give?
Its z-score is -0.0754.

With `CC(=O)Nc1ccc2c(c1)ncn2C` as the molecule, how does the z-score read?
Its z-score is -0.0444.

`CC(=O)Oc1ccc(/C=N/NC(=S)Nc2ccccc2)cc1` was tested. Which z-score did it give?
Its z-score is -0.154.

For `CC(Sc1nc2ccccc2n1C)C(=O)NC(c1ccccc1)c1ccccc1` (stereo not drawn), which z-score is on record?
The z-score was -0.468.

Which z-score does the source give for `NNc1nc(-c2ccccc2)cc(-c2ccccc2O)n1` here?
The z-score was -0.293.

With `O=C(NCC1c2ccccc2CCN1C(=O)CN1C(=O)c2ccccc2C1=O)C1CCCCC1` (stereo not drawn) as the molecule, how does the z-score read?
Its z-score is 0.166.

For `COc1cc(/C=C(/C#N)c2nc3ccccc3[nH]2)ccc1Oc1ncccc1[N+](=O)[O-]`, which z-score is on record?
Its z-score is -0.144.

How did the z-score turn out when `CCOC(=O)c1cnc2ccc(Cl)cc2c1Nc1ccc(S(=O)(=O)Nc2ncccn2)cc1` was run?
Its z-score is 0.216.

For `Nc1ccc(-n2nncc2-c2ccco2)cc1`, which z-score is on record?
Its z-score is -0.123.

`O=[N+]([O-])c1ccc(/C=N/NC(=S)Nc2ccccc2F)o1` was tested. Which z-score did it give?
Its z-score is active: 6.05.

For `CCCCOC(=O)c1ccc(NC(=S)NC(=O)c2c(Cl)cnn2CC)cc1`, which z-score is on record?
Its z-score is active: 8.06.

`COc1ccc(C(=O)N2CCCC2)cc1S(=O)(=O)N1CCOCC1` was tested. Which z-score did it give?
The z-score was -0.383.

`Cc1oc(C)c(C(=O)O)c1COc1ccc(C(=O)O)cc1` was tested. Which z-score did it give?
The z-score was 0.2.

`O=C(CCNC(=O)c1ccccc1Cl)Nc1ccc2c(c1)OCO2` was tested. Which z-score did it give?
The z-score was 0.0986.

`O=C(c1ccc(Cl)cc1)C(Cn1cncn1)C(Sc1ccccc1)c1ccccc1` (stereo not drawn) was tested. Which z-score did it give?
Its z-score is -0.0227.

How did the z-score turn out when `O=S(=O)(NC1=NCCCCCC1)c1cccs1` was run?
The z-score was 0.549.

`COc1cccc(COc2nc3c(c(=O)n(C)c(=O)n3C)n2C)c1` was tested. Which z-score did it give?
The z-score was -0.0675.

`CCN(CC)c1ccc(NC(=O)C2CCCN(S(=O)(=O)c3cnc[nH]3)C2)c(C)c1` (stereo not drawn) was tested. Which z-score did it give?
The z-score was 1.1.

How did the z-score turn out when `COc1ccc(C)cc1NC(=O)Nc1ccccc1` was run?
Its z-score is active: 11.5.

For `CCOc1ccccc1NC(=S)/C(=C(\[O-])c1ccc2c(c1)OCCO2)[n+]1ccc(CC)cc1`, which z-score is on record?
The z-score was -0.291.

Which z-score does the source give for `O=C(N/N=C/c1ccc([N+](=O)[O-])o1)c1cc(-c2ccncc2)nc2ccccc12` here?
Its z-score is -0.212.

With `COC(=O)C1CCN(C(=O)c2ccc(SC)cc2OC)CC1` as the molecule, how does the z-score read?
The z-score was 0.216.

Which z-score does the source give for `O=C(NNC(=O)c1ccco1)c1cccc([N+](=O)[O-])c1` here?
Its z-score is -0.222.

With `CCOC(=O)N1CCC(NCCNC(=O)c2ccccc2Cl)CC1` as the molecule, how does the z-score read?
Its z-score is -0.00637.

With `CC1CC(N(C(=O)c2ccco2)c2ccccc2)c2ccccc2N1C(=O)c1ccco1` (stereo not drawn) as the molecule, how does the z-score read?
Its z-score is -1.07.

For `COC(=O)c1cc(Br)c(=O)n(-c2ccccn2)c1`, which z-score is on record?
The z-score was 0.856.

For `CCCN(CCC)S(=O)(=O)c1cccc(C(=O)Nc2ccc3c(c2)OCO3)c1`, which z-score is on record?
The z-score was -0.129.

Which z-score does the source give for `COc1[nH]c(/N=C/c2ccccc2)c(C#N)c1C#N` here?
Its z-score is -0.526.

`Cc1cccc(N2CCN(C(=S)c3ccc(-c4ccccc4[N+](=O)[O-])o3)CC2)c1` was tested. Which z-score did it give?
The z-score was -0.333.

Which z-score does the source give for `O=C1c2ccccc2C(=O)N1CCCON1C(=O)c2ccccc2C1=O` here?
The z-score was 0.703.

Which z-score does the source give for `CCOC(=O)C(C)On1c(-c2ccc(Cl)cc2)nc2ccc([N+](=O)[O-])cc21` (stereo not drawn) here?
Its z-score is -1.56.

`Cc1ccc(S(=O)(=O)CCC(=O)OCc2ccc(Cl)c(Cl)c2)cc1` was tested. Which z-score did it give?
Its z-score is -0.149.

How did the z-score turn out when `O=C(c1ccccc1)C1C(=O)c2ccccc2C1=O` was run?
The z-score was -0.319.

`COc1ccc(-n2c(CNC(=O)c3ccc(S(=O)(=O)N4CCCC4)cc3)n[nH]c2=S)cc1` was tested. Which z-score did it give?
Its z-score is -0.254.

For `Cc1oc2c(c1C(=O)c1ccccc1)C(=O)C(=O)c1ccccc1-2`, which z-score is on record?
Its z-score is -0.17.

With `CCC(C)NC(=O)C(NS(=O)(=O)c1ccc2c(c1)c(=O)n(C)c(=O)n2C)c1ccccc1` (stereo not drawn) as the molecule, how does the z-score read?
Its z-score is -0.209.

Which z-score does the source give for `COc1ccc(CN2C(=O)CCC2(C)C(=O)NCc2cccnc2)c(OC)c1` (stereo not drawn) here?
Its z-score is -0.182.

For `CCOC(=O)c1cc(N)cc([N+](=O)[O-])c1`, which z-score is on record?
Its z-score is 0.152.

`N#CC1=C(N)N2C(=C(C#N)C13CCN(Cc1ccccc1)CC3)Nc1ccccc12` was tested. Which z-score did it give?
The z-score was -0.978.

With `O=c1c2cnn(-c3ccccc3)c2ncn1Cc1ccco1` as the molecule, how does the z-score read?
Its z-score is -0.516.

How did the z-score turn out when `CCn1nc2cc(C(=O)NCc3cc(C(F)(F)F)cc(C(F)(F)F)c3)ccc2c1OC` was run?
The z-score was -0.177.

With `CN(C)C(CNS(=O)(=O)c1ccc(F)cc1)c1cccnc1` (stereo not drawn) as the molecule, how does the z-score read?
Its z-score is -0.0944.

For `C=CCn1c(SCC(=O)NCc2ccccc2)nnc1-c1cc(Br)ccc1O`, which z-score is on record?
Its z-score is -2.09.
